From PubChem BioAssay (NCI)
Several values for one entry are separate records, joined by “and”; a condition that tells them apart may be missing. Equal values may be shown once.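 Protocol summary: plate cells (96-well), add compound at 5 concentrations, incubate 48 h, interpolate endpoints linearly. At the GI50, growth is halved. The concentration for full growth arrest is given as TGI.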

Test system: NCI-H322M lung
Assay: NCI anticancer screen, dose series, 48 h

NCCCN(CCCCN(CCCN)Cc1ccc2ccccc2c1)Cc1ccc2ccccc2c1
TGI: 3.63 µM

COc1cc(/C=C2/CCS(=O)(=O)c3ccc(C)cc3C2=O)cc(OC)c1OC
TGI: 11.6 µM

O=C(NCc1cccnc1)NCc1cccnc1
TGI: > 100 µM

COc1cc2cc(C(=O)N3CC(CCl)c4ccc(O)cc43)[nH]c2c(OC)c1OC (centres undefined)
TGI: 6.1 µM

C=CCc1cc(OC)c2c(c1)C(O)CC(c1ccccc1)O2 (centres undefined)
TGI: > 100 µM

CCCCCC/C=C\CCCCCCCCCc1cccc(O)c1C(=O)O
TGI: > 100 µM

N#CC(c1ccccc1)c1nc2ccc(=N)cc-2n(O)c1C(C#N)c1ccccc1 (centres undefined)
TGI: > 100 µM

CCCCCCNC(=O)c1cnc(Cl)cn1
TGI: 13.6 µM

Cc1ccc(Oc2ccc(C)cc2[N+](=O)[O-])cc1
TGI: > 100 µM

N#C/C(=C\c1c(-c2ccccc2)[nH]c2ccccc12)S(=O)(=O)c1ccccc1
GI50: 8.91 µM
TGI: > 100 µM

COc1cc2nc(N3CCCC3)nc(NCC3CCCCC3)c2cc1OC
GI50: 1.61 µM
TGI: 3 µM

Cc1ccc(NC(=O)/C=C/c2ccccc2)c(C(N)=O)c1
GI50: 20 µM
TGI: > 100 µM

O=C1C=C(Br)c2c(-c3ccccc3)oc3cccc1c23
TGI: > 100 µM

CS(=O)(=O)c1ccc(C(=O)Nc2ccc(Cl)c(-c3ccccn3)c2)c(Cl)c1
GI50: > 100 µM and 10.6 µM
TGI: > 100 µM

NC(=O)NN=C(CS)CS
TGI: 29.7 µM

Cc1cc(N/N=C/c2nc(-c3ccc(Br)cc3)oc2C)c2cc(Cl)ccc2n1
GI50: > 100 µM
TGI: > 100 µM

COc1cc2c(cc1OCCCCOc1cc3c(cc1OC)C(=O)N1CCC[C@H]1CN3)N=C[C@@H]1CCCN1C2=O
GI50: 3.9 µM
TGI: 15.1 µM

COc1ccc(NS(=O)CCCc2ccccc2)cc1 (centres undefined)
TGI: > 100 µM

COc1cccc(C=Nc2cc(C)ccn2)c1O.COc1cccc(C=Nc2cc(C)ccn2)c1O.[Cu]
GI50: 13 µM
TGI: 29.6 µM

COc1ccc(C(OCC2OC(n3ccc(NC(=O)c4ccccc4)nc3=O)C(O)C2O)(c2ccccc2)c2ccccc2)cc1 (centres undefined)
TGI: 45.3 µM

CN(C)CCCNC(=O)N/N=C/c1cccc([N+](=O)[O-])c1
TGI: > 100 µM

c1ccc2c(c1)c(NCCCCN1CCCCC1)cc1c3ccccc3c(NCCCCN3CCCCC3)cc21
GI50: 19.1 µM
TGI: 44.7 µM

C=CC(=O)N(C)[C@H]1C[C@H]2OC(C)(C1OC)n1c3ccccc3c3c4c(c5c6ccccc6n2c5c31)C(=O)NC4 (some centres undefined)
GI50: 0.191 µM
TGI: 2.54 µM

COc1nc(N)c(NC2OC(CO)C(O)C2O)c(=O)[nH]1 (centres undefined)
TGI: > 100 µM

CCC1(CC)CC(=NNS(=O)(=O)c2ccc(C)cc2)C1
TGI: > 100 µM

CCOC(=O)C1Oc2ccc([N+](=O)[O-])c3c2C1(O)CCC3 (centres undefined)
TGI: > 100 µM

CC1CCCc2c(C#N)c(N)nc(-c3ccc(Cl)cc3)c21 (centres undefined)
TGI: 64.5 µM

COc1cc(C(=O)C/C(CCC(=O)Nc2ccccc2[N+](=O)[O-])=N\NC(=O)CC#N)ccc1O
TGI: > 100 µM

Cc1ccc(/C=N/Nc2cnccn2)s1
TGI: > 100 µM

CSCC1CC(c2ccc(Cl)cc2)=NO1 (centres undefined)
TGI: > 100 µM

c1ccc2c(C3NCCc4[nH]cnc43)cccc2c1 (centres undefined)
TGI: > 100 µM

COC1CC(OS(=O)(=O)c2ccc(C)cc2)C(OC(=O)c2ccccc2)C(C)O1 (centres undefined)
TGI: > 100 µM

Cc1cc2c3ccc(C)[n+](C)c3ccc2n1C
GI50: 12.6 µM
TGI: 61.4 µM

CN(C(=O)Cc1cc(Cl)c(Cl)cc1N=C=S)[C@H]1CCCC[C@@H]1N1CCCC1
TGI: 29 µM

O=C(CN1CCNCCN(CC(=O)N2CCCCC2)CCNCC1)N1CCCCC1
TGI: > 100 µM

O=c1[nH]c2ccccc2nc1-c1c[nH]c2ccccc12
GI50: 10.3 µM
TGI: > 100 µM

COc1ccc2cc(-c3ccoc(=O)c3-c3cc(OC)c(OC)c(OC)c3)ccc2c1
TGI: > 100 µM

O=C(O)C1(P(=O)(O)O)CC1
TGI: > 100 µM

Cc1n[nH]c(=O)c2cc(-c3ccccc3)[nH]c12
TGI: > 100 µM

CCOc1ccc2nc(NC(=O)c3c/c(=N\NC(=O)C[N+](C)(C)C)c4ccc(O)cc4o3)sc2c1
TGI: 23.8 µM

N#CC(C(=O)CCC(=O)Nc1cccc(Cl)c1)c1ccccc1 (centres undefined)
TGI: > 100 µM

O=C1C(=O)c2c(nc3ccc(Cl)cn23)-c2ccccc21
GI50: 1.43 µM
TGI: 2.82 µM

COc1cc2c(cc1OC(=O)CC(C)O)C1C(OC2=O)C(OC(C)=O)C=C2CCN(C)[C@H]21 (some centres undefined)
TGI: > 100 µM

CCC1C(c2cc(OC)c(OC)c(OC)c2)c2cc3c(cc2OC1N1CCCC1)OCO3 (centres undefined)
TGI: 20.2 µM

C[Si](C)(C)OC1(C#N)C2C3CC4C2C(=O)C2C4C3C21 (centres undefined)
TGI: > 100 µM

COc1cc(OC)c(/C=C2\N=C(C)N(Nc3nnc(NN4C(=O)/C(=C/c5c(OC)cc(OC)cc5OC)N=C4C)c4ccccc34)C2=O)c(OC)c1
TGI: > 100 µM

COc1ccc(NC(=O)C/C(C)=N\N=C(N)N)c([N+](=O)[O-])c1
TGI: > 100 µM

COC(=O)C1CC2(CCC1=O)Cc1ccccc1C2=O (centres undefined)
TGI: > 100 µM

C=CCOC1OC(CO[Si](C)(C)C(C)(C)C)C(OCc2ccccc2)C(OCc2ccccc2)C1OCc1ccccc1 (centres undefined)
TGI: > 100 µM

C[C@]12CCC3[C@@H](CC[C@@H]4c5nonc5CC[C@]34C)C1CCC(=O)N2 (some centres undefined)
TGI: > 100 µM

Cc1cc(NCc2cc(Nc3ccnc4cc(Cl)ccc34)ccc2F)nc(N2CCCC2)n1
GI50: 1.54 µM
TGI: 4.41 µM
